# Assay results: article PMC12136788
# The list shows a part of the results.
# B1: chr5:136063637:136063821:+|3pUTR|ENSG00000120708|msi1|FALSE|unique (ssRNA)
# RNA: GGGAGUUCUACAGUCCGACGAUCUGUCAAAUGUGUCUCACAUCUACACGUGGCUUGGAGGCUUUUAUGGGGCCCUGUCCAGGUAGAAAAGAAAUGGUAUGUAGAGCUUAGAUUUCCCUAUUGUGACAGAGCCAUGGUGUGUUUCAACAGAGGAUUGAGCAUCA
# B2: chr13:95044265:95044438:-|CDS|ENSG00000125257|control|control|control (ssRNA)
# RNA: GGGAGUUCUACAGUCCGACGAUCACCAUUGAAGAUCUUCCUGGUAAAAUGGAUACUGAAUUAGCAGAAUCAGGAUCCAAUUUUAGUGUUGGACAAAGACAACUGGUGUGCCUUGCCAGGGCAAUUCUCAGGAAAAAUCAGAUACAACAGAGGAUUGAGCAUCA
# B3: chr10:94132299:94132400:+|CDS|ENSG00000138193|unk|total|mutant (ssRNA)
# RNA: GGGAGUUCUACAGUCCGACGAUCUGAGUAUCGCGCCACCCUCCAAAGGACUUCAAUAUCGCAGUACAUCACCGGUUCUCUCCCCGAAGCAACCACGUCUUUGGGAGCAAGAAGUGGCCUUCUCAGUACUUUUGGAGGAUCCACCAACAGAGGAUUGAGCAUCA
# B4: chr4:75597091:75597192:-|CDS|ENSG00000138769|unk|total|mutant (ssRNA)
# RNA: GGGAGUUCUACAGUCCGACGAUCUAUAAACUAUUUAAAAUAAAAGGCUCAAAAAUUGAUGGAGAAAAAGCUGAAAAAGGCAACCGAGCUUCAAAUGCCAGCUGUCUCCAUGACAGCCGGACAAGCCACAACAAAACCGUGCCUCAACAGAGGAUUGAGCAUCA
# B5: chr2:236324146:236324783:-|three_prime_utr|ENSG00000132321|control|control|control (ssRNA)
# RNA: GGGAGUUCUACAGUCCGACGAUCACUCGCCAAAGAAAAGAUUCACCAUUGCCCGCCUGAAGAAGCCCUCAGGGGAAGGAACUUAGCAGUGUGCAGGUGAGCUGAUGCCGCAAACCCGCUAACCACUGCAUGUGCUGUUAUGCCCAACAGAGGAUUGAGCAUCA
# B6: ENSG00000107863:be:win_5301|CDS|ENSG00000107863|bound_else_gene|NA|bound_elsewhere_windowed (ssRNA)
# RNA: GGGAGUUCUACAGUCCGACGAUCUCGGUUAAAACUGAGACCCAGAGCCCCUGCGGAUGACAUGUUUGGAGUAGGGAAUCACAAAGUGAAUGCCGAGACUGCUAAAAGGAAAAGCAUCCGGCGCAGACAUACACUAGGAGGGCACAACAGAGGAUUGAGCAUCA
# B7: chr2:224470697:224470798:-|3pUTR|ENSG00000036257|msi1|total|mutant (ssRNA)
# RNA: GGGAGUUCUACAGUCCGACGAUCUGUGACAAACUAAAGUUAAUACAUGAAGCAUUGCAAUAUGGAAUUUUGCACAUUUUUGUCCGCUUUACAUUAUUUGCUGAUACCAACUUUUGGCCGGAAGGAAAACAGGGAAGGUGAUUGCAACAGAGGAUUGAGCAUCA
# B8: chr12:108645191:108645284:-|3pUTR|ENSG00000110880|msi1_unk|FALSE|overlapping (ssRNA)
# RNA: GGGAGUUCUACAGUCCGACGAUCUCUUUUUUUUUUUUUUUUUUUAAGCCAUGACAUCCCAGAAGAGGACAGUGAAUUACUCCUAGGUCGGCUCUUAUAGAGUGGCCAUAGUGUUCUGUCAAAACACUUGCUUCCAUUUUCAGACAACAGAGGAUUGAGCAUCA
# B9: chrX:11121696:11121802:+|CDS|ENSG00000004961|unk|total|mutant (ssRNA)
# RNA: GGGAGUUCUACAGUCCGACGAUCUGAUGGUGGUGAAGUCAACAAGGACUACCAGUUCACCAUCCUGGACGUCCGUCCUGCCUCCGAUUCACUUUCGGCAGUAUGGGACAGAAUGAAAGUCGCUUGGUGGCGUUGGACCUCGUACAACAGAGGAUUGAGCAUCA
# B10: chr20:4701031:4701132:+|3pUTR|ENSG00000171867|msi1|total|mutant (ssRNA)
# RNA: GGGAGUUCUACAGUCCGACGAUCCACCGUUUCUGUAAUUGGCUUUUGAAUCAAAGAACCGGGAGACAAUCUAAAAAAUAUCUCCGGUUGGAGAUGACAGAAAUAUGAUUGAUUUGAAGUGGAAAAAGAAAUUCUGUUAAUGUUCAACAGAGGAUUGAGCAUCA
# B11: chr8:38210141:38210254:+|CDS|ENSG00000156735|unk|total|mutant (ssRNA)
# RNA: GGGAGUUCUACAGUCCGACGAUCGCUGAGCCUCAGCUGUAUGGUAAUGCCACCAGUGACCAUCCCAACAAUCAAGAUCAAAGCCGCAGUCUUCCUGAAGAAUGUGUACCUUCAGAUGAAAGUACUCCUCCGAGUAUUAAAAAACAACAGAGGAUUGAGCAUCA
# B12: chr2:219567275:219567376:-|CDS|ENSG00000124006|msi1|total|mutant (ssRNA)
# RNA: GGGAGUUCUACAGUCCGACGAUCUGUGUGCCCUCCGAGGGUGACUACCGCUUCCGCAUCUGCACAGUCAGCGGACAUGGCCGCCGUCCCCACGUGGUGUUCCACGGUUCUGCUCACCUUGGUGAGUUGGUCCUGCCAGACCCACAACAGAGGAUUGAGCAUCA
# B13: ENSG00000198589:be:win_8001|CDS|ENSG00000198589|bound_else_gene|NA|bound_elsewhere_windowed (ssRNA)
# RNA: GGGAGUUCUACAGUCCGACGAUCUGGAGAUAACCCAGGCAGUGAGACUGCUGCUCCUCGGGCCAUUUUGACCGGCCAUGACUAUGAGGUCACAUGUGCUGCGGUGUGUGCGGAGCUAGGCCUGGUGUUGAGUGGUUCACAAGACAACAGAGGAUUGAGCAUCA
# B14: chr1:151048051:151048152:+|CDS|ENSG00000143443|unk|total|mutant (ssRNA)
# RNA: GGGAGUUCUACAGUCCGACGAUCGACCGCCUGGCUGGACCAGCGGCUGCCGAGCUCUUGGCCGCCACGGUGUCCACCGGCUUCCGCCGGUCGUCCGCCAUUAACGAGGAGGAUGGGUCUUCAGAAGAGGGGGUUGUGAUUAAUCAACAGAGGAUUGAGCAUCA
# B15: chr8:22006364:22006465:+|3pUTR|ENSG00000130227|msi1|total|mutant (ssRNA)
# RNA: GGGAGUUCUACAGUCCGACGAUCUGUUGCUGCCCGUUGUACACAUCUCCCGUUCAGCUCUUGCCCACGGGACACUCAUCAAUCCGGUUUUAUUUUUAUUUCUUUCCUCUACCCCCAGAAACAAGCCUGUUAAUUUUUUUUCCUCAACAGAGGAUUGAGCAUCA
# B16: chr7:100033925:100034026:+|CDS|ENSG00000106261|msi1|total|mutant (ssRNA)
# RNA: GGGAGUUCUACAGUCCGACGAUCCAGAGCUCGGACCUCACCAAGCAUCAGAGAAUUCACACGGGGGAGAAACCCUAUGAAUGCCGUGAAUGUGGAAAAGCUUUCAACCGAAACUCAUACCUGAUUUUGCAUCGGAGAAUUCACCAACAGAGGAUUGAGCAUCA
# B17: chr6:108211900:108211976:-|3pUTR|ENSG00000112335|msi1_unk|total|mutant (ssRNA)
# RNA: GGGAGUUCUACAGUCCGACGAUCGUUGACAAGAAGUUAAUUUGCUUCCGUAAAAAUCCCUCAUUCCAGCCUUUCUAUAUAAACCGCUCUUUCUUGCUGUUUUAAUGUGGUGCACACUACCGCCUCACAAACCUGUUAUUCCAGCAACAGAGGAUUGAGCAUCA
# B18: chr16:67638976:67639077:+|3pUTR|ENSG00000102974|unk|FALSE|unique (ssRNA)
# RNA: GGGAGUUCUACAGUCCGACGAUCAAACACUUUUUUCUUCUGUGUAUUGCUUUUAAGAGAGCCAUCAGUUAGCUAUCAGACUCUAGGUUGAUGCAUUUUGUACUUAGCUGUACUGUGUGAUAUUUUUCAUUAUUUUAGGACGCCCAACAGAGGAUUGAGCAUCA
# B19: chr1:61455842:61455953:+|3pUTR|ENSG00000162599|unk|total|mutant (ssRNA)
# RNA: GGGAGUUCUACAGUCCGACGAUCUUUUCUGUAACAUAUUGGAAAAAGAAAAUGCAGUUAUAUUCCUUUUUUAUUUGUUCCUUCCGUUUGUUUUGGUUCAGCAGUCAGCAGUUAAGUAUAUAACAUGGCCCGCAAGGACAAUGACAACAGAGGAUUGAGCAUCA
# B20: chr12:42456824:42456925:-|3pUTR|ENSG00000139174|unk|total|mutant (ssRNA)
# RNA: GGGAGUUCUACAGUCCGACGAUCAUGAGCCACUGCGUCUGGCAAUAAUGUAACUUUGAAGCUUAAAAAUUAAUCCCAGUUUGCCGCAAUAACAGAAGACUAUCUACAACGGAAGAAAGAAGCAACUGCCUUACAGUUCUGUAACAACAGAGGAUUGAGCAUCA
# B21: chr1:53952023:53952124:+|CDS|ENSG00000116212|msi1|FALSE|unique (ssRNA)
# RNA: GGGAGUUCUACAGUCCGACGAUCUACAUGCGAGAAAAUGGGCAGCUGCACAUGGUCAAUCUGGCUCUGGAUGGUGUCAGGAGUAGCCUGCAGAAGCCAAGGCCUUUCAGACUGUUCCCCAAAGGCUUUUCUGUGGAGCUUUGCCAACAGAGGAUUGAGCAUCA
# B22: chr1:42696720:42696786:+|CDS|ENSG00000065978|msi1_unk|FALSE|overlapping (ssRNA)
# RNA: GGGAGUUCUACAGUCCGACGAUCCCAGUUCAAGGCAGUAAAUAUGCAGCAGACCGUAACCAUUAUAGACGCUAUCCACGUCGUAGGGGUCCUCCACGCAAUUACCAGCAAAAUUACCAGAAUAGUGAGAGUGGGGAAAAGAACCAACAGAGGAUUGAGCAUCA
# Target: MSI1 full-length (mouse, UniProt Q61474 1-362)
# Test: nsRBNS (natural sequence RNA bind-n-seq); RBNS binding buffer (assumed for nsRBNS): 25 mM Tris pH 7.5, 150 mM KCl, 3 mM MgCl2, 0.01% Triton X-100, 500 ug/ml BSA, 20 U/ml SUPERase-In, 4 C; UNK is unkempt and MSI1 is Musashi-1; names of the RNAs are library labels; protein concentration not given here; high values mean tight binding
# Sequence of UniProt Q61474 (Q61474 whole entry): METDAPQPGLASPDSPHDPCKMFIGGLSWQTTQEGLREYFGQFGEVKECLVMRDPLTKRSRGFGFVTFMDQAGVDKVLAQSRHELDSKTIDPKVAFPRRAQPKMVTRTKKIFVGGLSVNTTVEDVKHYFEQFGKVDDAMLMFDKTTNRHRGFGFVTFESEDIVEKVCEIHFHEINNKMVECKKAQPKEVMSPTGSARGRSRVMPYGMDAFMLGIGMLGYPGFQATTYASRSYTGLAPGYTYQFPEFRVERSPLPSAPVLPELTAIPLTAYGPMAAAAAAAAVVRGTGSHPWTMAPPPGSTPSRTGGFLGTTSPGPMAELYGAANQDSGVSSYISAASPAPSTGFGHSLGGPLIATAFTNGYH
row,Binder,binding signal
1,B1,2.67 enrichment R
2,B2,0.603 enrichment R
3,B3,0.404 enrichment R
4,B4,0.978 enrichment R
5,B5,0.38 enrichment R
6,B6,0.426 enrichment R
7,B7,0.351 enrichment R
8,B8,2.26 enrichment R
9,B9,0.333 enrichment R
10,B10,0.277 enrichment R
11,B11,0.38 enrichment R
12,B12,0.357 enrichment R
13,B13,0.421 enrichment R
14,B14,0.473 enrichment R
15,B15,2.44 enrichment R
16,B16,0.384 enrichment R
17,B17,0.558 enrichment R
18,B18,5.17 enrichment R
19,B19,0.532 enrichment R
20,B20,0.477 enrichment R
21,B21,0.863 enrichment R
22,B22,2.75 enrichment R
